For 9 cell lines, AUC and IC50 results are on record in the supplement of paper PMC4967469.

A lower IC50 marks a more sensitive line; a limit (>, <) means that the fit lies beyond the doses tested. AUC is the area under the same curve over the 256-fold range up to the top dose, as a fraction; values near 1 show little effect. For part of these data: Where the top dose is marked as inferred, it was derived from the fitted curves, not read from the paper.

Test in all cases: Viability of human cancer cell lines after 72 h of drug (GDSC screen)
Compound in one experiment: Cc1ccc2nc(NCCN)c3ncc(C)n3c2c1 [BMS-345541]
Conditions: top dose 16 µM. The method, then: (§1)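 Human cancer cell lines in 384-well plates, medium with 10% serum, drug for 72 h over a 256-fold dose range (nine 2-fold or five 4-fold steps up to the top dose). Adherent lines were fixed and stained with the nucleic acid dye Syto60, suspension lines read with resazurin; signal relative to control wells, capped at 0 and 100%. One two-parameter sigmoid per drug and line, fitted in a mixed model over all curves with the slope shared within a line.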

Compound in another experiment: O=C(O)c1ccc(-c2c[nH]c3ncc(-c4ccccc4)cc23)cc1C1CCCC1 [GSK-650394]
Conditions: top dose 16 µM; top dose inferred. Here is the method: as §1

Compound in another experiment: COc1ccc(C(=O)CC2(O)C(=O)Nc3c(Cl)ccc(Cl)c32)cc1 [YK 4-279]
The note with it: top dose 10 µM. Here is the method:
as §1

Compound in another experiment: C=C(c1ccc(C(=O)O)cc1)c1cc2c(cc1C)C(C)(C)CCC2(C)C [Bexarotene]
The note with it: top dose 8 µM. The method, then:
as §1

Compound in another experiment: Oc1nc(-c2ccc(C(F)(F)F)cc2)nc2c1CSCC2 [XAV 939]
The note with it: top dose 5 µM; top dose inferred. The method, then: as §1

Compound in another experiment: COc1cc(C(=O)NC2CCN(C)CC2)ccc1Nc1ncc2c(n1)N(C1CCCC1)C(C)CC(=O)N2C [NPK76-II-72-1]
Conditions: top dose 10.24 µM; top dose inferred. The method, then: as §1

Compound in a further experiment: NC(=O)Nc1cc(-c2cccc(F)c2)sc1C(=O)N[C@H]1CCCNC1 [AZD7762]
Conditions: top dose 2 µM. The method, then:
as §1

As usually defined, the IC50 is the point on the concentration scale where inhibition reaches its midpoint.

As for SW1990 (pancreas, adherent), the AUC came to 0.931 with BMS-345541; 0.842 with GSK-650394; 0.87 in the experiment with YK 4-279; 0.871 with Bexarotene; 0.924 with XAV 939; 0.984 in the experiment with NPK76-II-72-1. Further, in the experiment with AZD7762, the AUC is 0.603. Besides, the half-maximal inhibitory concentration (IC50) was over 16 µM in the experiment with BMS-345541; 14.3 µM with GSK-650394; over 10 µM with YK 4-279; over 8 µM in the experiment with Bexarotene; over 5 µM with XAV 939; over 10.2 µM with NPK76-II-72-1. In addition, the IC50 with AZD7762 came out at 0.251 µM.

For Saos-2 (osteosarcoma, adherent), the AUC with BMS-345541 amounted to 0.95; with GSK-650394 it was 0.935; with YK 4-279 it was 0.783; in the experiment with Bexarotene it was 0.813; with XAV 939 it was 0.948; in the experiment with NPK76-II-72-1, 0.98. The AUC in the experiment with AZD7762 was determined as 0.759. Further, the IC50 is over 16 µM with BMS-345541; over 16 µM in the experiment with GSK-650394; 6.25 µM with YK 4-279; 6.91 µM with Bexarotene; over 5 µM in the experiment with XAV 939; over 10.2 µM with NPK76-II-72-1. In the experiment with AZD7762, the IC50 was found to be 0.995 µM.

As to U251 (glioma, adherent), the AUC worked out at 0.885 in the experiment with BMS-345541; 0.869 with GSK-650394; 0.59 with YK 4-279; 0.959 in the experiment with Bexarotene; 0.956 in the experiment with XAV 939; 0.785 with NPK76-II-72-1. For the same cell line, the AUC with AZD7762 turned out to be 0.979. In addition, the IC50 in the experiment with BMS-345541 was over 16 µM; in the experiment with GSK-650394 it was 13.6 µM; with YK 4-279, 1.09 µM; in the experiment with Bexarotene, over 8 µM; with XAV 939, over 5 µM; with NPK76-II-72-1, 4.18 µM. The IC50 with AZD7762 is over 2 µM.

In the case of UACC-62 (melanoma, adherent), the AUC in the experiment with BMS-345541 turned out to be 0.979; in the experiment with GSK-650394, 0.988; with YK 4-279, 0.701; in the experiment with Bexarotene, 0.972; with XAV 939 it was 0.963; with NPK76-II-72-1, 0.988. Moreover, the AUC with AZD7762 was found to be 0.804. For the same cell line, the IC50 with BMS-345541 was over 16 µM; with GSK-650394, over 16 µM; with YK 4-279 it was 2.28 µM; with Bexarotene it was over 8 µM; with XAV 939, over 5 µM; with NPK76-II-72-1, over 10.2 µM. The half-inhibitory concentration (IC50) in the experiment with AZD7762 came out at 0.989 µM.

UACC-257 (melanoma, adherent): the AUC worked out at 0.865 with BMS-345541; 0.959 with GSK-650394; 0.835 in the experiment with YK 4-279; 0.966 with Bexarotene; 0.919 with XAV 939; 0.897 with NPK76-II-72-1. For the same cell line, the AUC with AZD7762 came out at 0.931. Moreover, the IC50 is over 16 µM with BMS-345541; over 16 µM with GSK-650394; 8.93 µM with YK 4-279; over 8 µM in the experiment with Bexarotene; over 5 µM in the experiment with XAV 939; over 10.2 µM in the experiment with NPK76-II-72-1. Further, in the experiment with AZD7762, the concentration for half-maximal inhibition (IC50) was over 2 µM.

Take UM-UC-3 (bladder, adherent): the AUC is 0.898 with BMS-345541; 0.757 with GSK-650394; 0.669 with YK 4-279; 0.95 with Bexarotene; 0.964 with XAV 939; 0.827 with NPK76-II-72-1. Also, in the experiment with AZD7762, the AUC turned out to be 0.803. Moreover, the IC50 with BMS-345541 is over 16 µM; in the experiment with GSK-650394, 5.19 µM; with YK 4-279 it was 1.79 µM; with Bexarotene it was over 8 µM; in the experiment with XAV 939 it was over 5 µM; with NPK76-II-72-1, 5.75 µM. Besides, the IC50 in the experiment with AZD7762 was determined as 0.922 µM.

For the cell line WM-115 (melanoma, adherent), the AUC with BMS-345541 came out at 0.874; in the experiment with GSK-650394, 0.981; with YK 4-279, 0.656; with Bexarotene it was 0.871; with XAV 939 it was 0.98; with NPK76-II-72-1 it was 0.887. Also, the AUC with AZD7762 was determined as 0.898. In addition, the IC50 was over 16 µM in the experiment with BMS-345541; over 16 µM in the experiment with GSK-650394; 1.88 µM in the experiment with YK 4-279; over 8 µM with Bexarotene; over 5 µM in the experiment with XAV 939; over 10.2 µM in the experiment with NPK76-II-72-1. In addition, the IC50 with AZD7762 was over 2 µM.

On to WSU-DLCL2 (B-cell lymphoma, suspension), for which the AUC with BMS-345541 is 0.88; with GSK-650394 it was 0.972; with YK 4-279, 0.972; with Bexarotene, 0.992; in the experiment with XAV 939, 0.79; with NPK76-II-72-1 it was 0.966. The AUC with AZD7762 is 0.64. Further, the IC50 with BMS-345541 is 11.8 µM; with GSK-650394, over 16 µM; with YK 4-279 it was over 10 µM; with Bexarotene, over 8 µM; in the experiment with XAV 939 it was 1.83 µM; with NPK76-II-72-1, over 10.2 µM. The IC50 with AZD7762 amounted to 0.282 µM.

As for WSU-NHL (lymphoid neoplasm, suspension), the AUC amounted to 0.907 in the experiment with BMS-345541; 0.85 with GSK-650394; 0.803 with YK 4-279; 0.99 with Bexarotene; 0.988 with XAV 939; 0.722 with NPK76-II-72-1. In addition, in the experiment with AZD7762, the AUC was 0.34. Moreover, the IC50 was over 16 µM with BMS-345541; 10 µM with GSK-650394; 4.27 µM with YK 4-279; over 8 µM with Bexarotene; over 5 µM in the experiment with XAV 939; 2.49 µM with NPK76-II-72-1. In addition, in the experiment with AZD7762, the IC50 is 0.0478 µM.
